{
  "sequences": {"note": "Sequences of proteins named here, by UniProt entry; tags and fusion partners are left off.", "UniProt Q92793": "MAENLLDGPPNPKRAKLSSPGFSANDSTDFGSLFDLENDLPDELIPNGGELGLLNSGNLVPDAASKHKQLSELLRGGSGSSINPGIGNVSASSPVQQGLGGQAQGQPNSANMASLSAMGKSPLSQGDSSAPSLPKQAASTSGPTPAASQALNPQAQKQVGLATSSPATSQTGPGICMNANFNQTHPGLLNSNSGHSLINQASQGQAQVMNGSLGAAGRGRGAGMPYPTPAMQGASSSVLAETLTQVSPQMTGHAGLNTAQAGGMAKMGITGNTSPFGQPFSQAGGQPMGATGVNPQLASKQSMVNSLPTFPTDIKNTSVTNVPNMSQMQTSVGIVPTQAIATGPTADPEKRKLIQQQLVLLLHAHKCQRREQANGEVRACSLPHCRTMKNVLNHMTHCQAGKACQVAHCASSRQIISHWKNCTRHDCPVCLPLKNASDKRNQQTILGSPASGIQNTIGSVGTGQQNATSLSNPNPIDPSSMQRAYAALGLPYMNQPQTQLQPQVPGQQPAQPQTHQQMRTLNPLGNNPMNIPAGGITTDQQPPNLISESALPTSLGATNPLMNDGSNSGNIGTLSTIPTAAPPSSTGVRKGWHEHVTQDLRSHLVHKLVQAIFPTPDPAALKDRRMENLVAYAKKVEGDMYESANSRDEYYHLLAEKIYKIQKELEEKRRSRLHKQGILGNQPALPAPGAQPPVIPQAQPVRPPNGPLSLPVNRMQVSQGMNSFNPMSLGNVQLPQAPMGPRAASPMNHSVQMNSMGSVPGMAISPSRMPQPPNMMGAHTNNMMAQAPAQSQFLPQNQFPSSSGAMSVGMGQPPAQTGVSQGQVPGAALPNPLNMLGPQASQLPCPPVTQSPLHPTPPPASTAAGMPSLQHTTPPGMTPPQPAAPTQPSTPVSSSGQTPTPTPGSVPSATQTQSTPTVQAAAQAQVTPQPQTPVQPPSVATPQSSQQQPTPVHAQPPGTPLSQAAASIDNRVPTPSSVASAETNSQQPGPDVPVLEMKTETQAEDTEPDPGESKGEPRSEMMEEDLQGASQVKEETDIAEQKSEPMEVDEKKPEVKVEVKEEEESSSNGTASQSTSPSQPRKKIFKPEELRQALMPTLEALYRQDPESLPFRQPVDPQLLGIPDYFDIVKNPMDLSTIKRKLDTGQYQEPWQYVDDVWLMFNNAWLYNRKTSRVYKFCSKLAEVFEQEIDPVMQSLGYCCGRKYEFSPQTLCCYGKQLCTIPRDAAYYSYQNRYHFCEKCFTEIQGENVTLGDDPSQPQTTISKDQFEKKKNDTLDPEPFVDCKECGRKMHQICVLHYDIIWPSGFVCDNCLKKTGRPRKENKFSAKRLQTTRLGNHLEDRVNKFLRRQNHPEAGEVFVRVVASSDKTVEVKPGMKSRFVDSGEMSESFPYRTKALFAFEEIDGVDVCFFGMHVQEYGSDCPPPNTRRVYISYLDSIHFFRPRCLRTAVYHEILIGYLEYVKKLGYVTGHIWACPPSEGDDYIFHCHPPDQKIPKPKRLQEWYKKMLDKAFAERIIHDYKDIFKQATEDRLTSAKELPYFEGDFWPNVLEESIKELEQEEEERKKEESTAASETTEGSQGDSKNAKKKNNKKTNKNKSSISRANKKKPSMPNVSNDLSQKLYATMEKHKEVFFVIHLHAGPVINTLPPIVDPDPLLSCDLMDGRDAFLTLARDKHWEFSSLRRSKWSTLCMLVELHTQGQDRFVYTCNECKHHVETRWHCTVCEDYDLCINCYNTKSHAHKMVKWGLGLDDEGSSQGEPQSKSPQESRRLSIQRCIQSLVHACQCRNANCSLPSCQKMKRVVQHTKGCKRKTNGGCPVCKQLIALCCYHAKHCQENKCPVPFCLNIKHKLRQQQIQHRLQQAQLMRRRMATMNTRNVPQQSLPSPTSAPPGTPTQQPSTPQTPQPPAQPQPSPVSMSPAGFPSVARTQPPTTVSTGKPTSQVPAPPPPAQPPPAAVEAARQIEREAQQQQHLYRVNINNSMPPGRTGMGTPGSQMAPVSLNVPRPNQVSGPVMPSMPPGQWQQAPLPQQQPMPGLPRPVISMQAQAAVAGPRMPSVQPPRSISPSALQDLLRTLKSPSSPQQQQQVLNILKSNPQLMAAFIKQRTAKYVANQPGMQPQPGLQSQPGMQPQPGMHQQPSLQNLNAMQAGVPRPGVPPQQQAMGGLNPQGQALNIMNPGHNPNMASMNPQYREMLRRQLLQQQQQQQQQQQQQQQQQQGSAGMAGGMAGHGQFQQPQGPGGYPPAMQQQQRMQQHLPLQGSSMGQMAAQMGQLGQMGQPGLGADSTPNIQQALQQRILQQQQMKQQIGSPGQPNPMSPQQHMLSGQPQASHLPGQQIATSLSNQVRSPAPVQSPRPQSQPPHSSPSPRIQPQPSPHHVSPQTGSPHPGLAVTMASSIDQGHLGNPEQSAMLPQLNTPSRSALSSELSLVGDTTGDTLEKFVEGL", "UniProt Q09472": "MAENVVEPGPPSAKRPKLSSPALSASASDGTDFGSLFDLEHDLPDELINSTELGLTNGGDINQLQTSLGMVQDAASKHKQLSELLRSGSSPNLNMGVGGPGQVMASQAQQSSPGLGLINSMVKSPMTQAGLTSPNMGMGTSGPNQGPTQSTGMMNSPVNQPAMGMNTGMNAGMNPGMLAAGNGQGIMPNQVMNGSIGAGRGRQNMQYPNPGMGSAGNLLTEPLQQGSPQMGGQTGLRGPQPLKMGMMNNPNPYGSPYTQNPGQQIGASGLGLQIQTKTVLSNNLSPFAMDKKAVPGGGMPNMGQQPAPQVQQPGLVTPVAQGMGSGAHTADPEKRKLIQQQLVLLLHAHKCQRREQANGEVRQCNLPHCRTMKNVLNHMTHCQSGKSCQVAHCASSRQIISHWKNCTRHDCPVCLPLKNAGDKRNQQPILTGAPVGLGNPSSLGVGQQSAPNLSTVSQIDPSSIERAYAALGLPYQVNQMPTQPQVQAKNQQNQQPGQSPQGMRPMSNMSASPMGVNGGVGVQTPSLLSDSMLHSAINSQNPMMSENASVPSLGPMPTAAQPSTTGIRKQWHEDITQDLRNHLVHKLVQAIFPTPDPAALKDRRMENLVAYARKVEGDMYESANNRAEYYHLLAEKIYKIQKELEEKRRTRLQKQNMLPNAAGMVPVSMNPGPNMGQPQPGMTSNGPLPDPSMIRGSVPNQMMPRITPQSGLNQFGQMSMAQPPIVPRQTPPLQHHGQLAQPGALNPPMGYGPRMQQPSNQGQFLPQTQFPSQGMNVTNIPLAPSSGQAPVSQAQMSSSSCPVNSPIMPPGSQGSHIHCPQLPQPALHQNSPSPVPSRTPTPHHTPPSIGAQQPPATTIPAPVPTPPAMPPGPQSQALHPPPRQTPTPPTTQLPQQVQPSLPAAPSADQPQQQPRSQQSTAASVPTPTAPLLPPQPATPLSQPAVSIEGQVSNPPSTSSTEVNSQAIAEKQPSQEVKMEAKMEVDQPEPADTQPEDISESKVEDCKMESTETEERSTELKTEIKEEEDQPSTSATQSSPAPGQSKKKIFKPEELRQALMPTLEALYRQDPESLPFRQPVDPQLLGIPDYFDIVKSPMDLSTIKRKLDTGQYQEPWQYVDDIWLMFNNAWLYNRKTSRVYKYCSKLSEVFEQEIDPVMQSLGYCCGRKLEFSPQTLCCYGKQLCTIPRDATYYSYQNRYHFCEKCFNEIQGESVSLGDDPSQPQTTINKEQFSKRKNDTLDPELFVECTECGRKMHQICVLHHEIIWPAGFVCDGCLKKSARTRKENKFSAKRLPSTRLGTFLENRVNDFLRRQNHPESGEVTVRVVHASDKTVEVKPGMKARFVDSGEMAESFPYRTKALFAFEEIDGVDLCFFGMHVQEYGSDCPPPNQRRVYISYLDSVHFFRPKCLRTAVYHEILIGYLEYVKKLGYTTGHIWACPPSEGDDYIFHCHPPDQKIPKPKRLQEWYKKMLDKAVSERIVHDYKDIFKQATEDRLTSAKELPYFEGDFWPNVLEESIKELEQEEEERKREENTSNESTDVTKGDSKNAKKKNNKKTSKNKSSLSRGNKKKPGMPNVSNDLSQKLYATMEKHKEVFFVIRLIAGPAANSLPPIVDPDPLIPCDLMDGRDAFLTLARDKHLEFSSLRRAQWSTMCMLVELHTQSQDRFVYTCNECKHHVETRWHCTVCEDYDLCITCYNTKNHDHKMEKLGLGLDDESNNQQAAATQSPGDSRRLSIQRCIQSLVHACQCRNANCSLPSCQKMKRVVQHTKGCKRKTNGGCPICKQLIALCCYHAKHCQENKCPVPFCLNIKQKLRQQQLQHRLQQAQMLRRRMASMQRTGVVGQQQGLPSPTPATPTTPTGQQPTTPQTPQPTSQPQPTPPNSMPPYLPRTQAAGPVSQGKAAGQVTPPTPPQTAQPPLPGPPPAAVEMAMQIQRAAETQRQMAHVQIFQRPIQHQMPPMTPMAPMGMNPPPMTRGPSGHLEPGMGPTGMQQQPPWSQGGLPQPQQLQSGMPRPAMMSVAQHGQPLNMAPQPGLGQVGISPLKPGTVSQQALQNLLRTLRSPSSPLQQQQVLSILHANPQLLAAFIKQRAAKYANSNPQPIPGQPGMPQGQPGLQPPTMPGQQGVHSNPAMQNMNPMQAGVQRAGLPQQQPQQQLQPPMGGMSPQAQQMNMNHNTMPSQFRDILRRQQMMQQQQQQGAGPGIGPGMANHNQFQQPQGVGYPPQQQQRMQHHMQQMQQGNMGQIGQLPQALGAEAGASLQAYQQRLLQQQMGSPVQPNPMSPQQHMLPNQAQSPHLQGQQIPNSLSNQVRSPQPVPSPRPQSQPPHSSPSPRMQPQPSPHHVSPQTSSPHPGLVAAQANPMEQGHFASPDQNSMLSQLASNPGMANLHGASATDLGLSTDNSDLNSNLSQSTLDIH", "UniProt P10215": "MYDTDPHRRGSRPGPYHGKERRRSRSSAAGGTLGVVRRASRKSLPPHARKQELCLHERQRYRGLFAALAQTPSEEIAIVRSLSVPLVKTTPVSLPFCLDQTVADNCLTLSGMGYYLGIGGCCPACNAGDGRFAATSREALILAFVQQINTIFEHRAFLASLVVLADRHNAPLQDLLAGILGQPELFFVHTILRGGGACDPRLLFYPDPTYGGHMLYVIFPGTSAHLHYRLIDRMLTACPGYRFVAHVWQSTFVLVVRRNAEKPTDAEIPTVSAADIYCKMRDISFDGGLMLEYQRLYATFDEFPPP", "UniProt Q14653": "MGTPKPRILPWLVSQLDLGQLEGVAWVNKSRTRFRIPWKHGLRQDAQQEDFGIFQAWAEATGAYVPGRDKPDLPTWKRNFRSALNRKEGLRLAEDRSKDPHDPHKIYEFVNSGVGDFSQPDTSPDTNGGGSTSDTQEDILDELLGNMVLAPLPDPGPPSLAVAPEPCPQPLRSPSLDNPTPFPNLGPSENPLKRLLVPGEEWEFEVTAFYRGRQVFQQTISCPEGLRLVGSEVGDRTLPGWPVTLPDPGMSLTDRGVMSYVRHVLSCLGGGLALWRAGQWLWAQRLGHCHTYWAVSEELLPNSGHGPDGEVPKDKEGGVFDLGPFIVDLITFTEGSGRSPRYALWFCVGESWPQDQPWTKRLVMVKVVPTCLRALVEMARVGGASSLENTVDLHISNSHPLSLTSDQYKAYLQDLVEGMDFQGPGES", "UniProt Q7Z434": "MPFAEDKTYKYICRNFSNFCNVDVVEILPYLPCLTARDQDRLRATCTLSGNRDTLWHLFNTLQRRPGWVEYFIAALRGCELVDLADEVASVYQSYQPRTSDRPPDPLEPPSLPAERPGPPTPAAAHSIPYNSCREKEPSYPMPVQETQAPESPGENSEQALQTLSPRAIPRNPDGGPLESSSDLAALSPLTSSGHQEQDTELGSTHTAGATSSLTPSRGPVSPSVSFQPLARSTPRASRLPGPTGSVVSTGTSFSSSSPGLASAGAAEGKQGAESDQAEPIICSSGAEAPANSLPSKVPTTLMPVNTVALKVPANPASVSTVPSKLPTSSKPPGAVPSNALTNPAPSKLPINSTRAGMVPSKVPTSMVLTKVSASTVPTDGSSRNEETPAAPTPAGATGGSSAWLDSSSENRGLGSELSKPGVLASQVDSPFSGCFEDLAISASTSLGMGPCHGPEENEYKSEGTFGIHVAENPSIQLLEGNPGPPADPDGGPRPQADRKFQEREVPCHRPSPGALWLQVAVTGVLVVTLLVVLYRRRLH"},
  "source": "paper PMC8865407",
  "molecules": {"B1": {"name": "IKKi-Flag (enzyme, UniProt Q14164 1-716)", "chain": "MQSTANYLWHTDDLLGQGATASVYKARNKKSGELVAVKVFNTTSYLRPREVQVREFEVLRKLNHQNIVKLFAVEETGGSRQKVLVMEYCSSGSLLSVLESPENAFGLPEDEFLVVLRCVVAGMNHLRENGIVHRDIKPGNIMRLVGEEGQSIYKLTDFGAARELDDDEKFVSVYGTEEYLHPDMYERAVLRKPQQKAFGVTVDLWSIGVTLYHAATGSLPFIPFGGPRRNKEIMYRITTEKPAGAIAGAQRRENGPLEWSYTLPITCQLSLGLQSQLVPILANILEVEQAKCWGFDQFFAETSDILQRVVVHVFSLSQAVLHHIYIHAHNTIAIFQEAVHKQTSVAPRHQEYLFEGHLCVLEPSVSAQHIAHTTASSPLTLFSTAIPKGLAFRDPALDVPKFVPKVDLQADYNTAKGVLGAGYQALRLARALLDGQELMFRGLHWVMEVLQATCRRTLEVARTSLLYLSSSLGTERFSSVAGTPEIQELKAAAELRSRLRTLAEVLSRCSQNITETQESLSSLNRELVKSRDQVHEDRSIQQIQCCLDKMNFIYKQFKKSRMRPGLGYNEEQIHKLDKVNFSHLAKRLLQVFQEECVQKYQASLVTHGKRMRVVHETRNHLRLVGCSVAACNTEAQGVQESLSKLLEELSHQLLQDRAKGAQASPPPIAPYPSPTRKDLLLHMQELCEGMKLLASDLLDNNRIIERLNRVPAPPDV"}, "B2": {"name": "endogenous TBK1 (enzyme, UniProt Q9UHD2 1-729)", "chain": "MQSTSNHLWLLSDILGQGATANVFRGRHKKTGDLFAIKVFNNISFLRPVDVQMREFEVLKKLNHKNIVKLFAIEEETTTRHKVLIMEFCPCGSLYTVLEEPSNAYGLPESEFLIVLRDVVGGMNHLRENGIVHRDIKPGNIMRVIGEDGQSVYKLTDFGAARELEDDEQFVSLYGTEEYLHPDMYERAVLRKDHQKKYGATVDLWSIGVTFYHAATGSLPFRPFEGPRRNKEVMYKIITGKPSGAISGVQKAENGPIDWSGDMPVSCSLSRGLQVLLTPVLANILEADQEKCWGFDQFFAETSDILHRMVIHVFSLQQMTAHKIYIHSYNTATIFHELVYKQTKIISSNQELIYEGRRLVLEPGRLAQHFPKTTEENPIFVVSREPLNTIGLIYEKISLPKVHPRYDLDGDASMAKAITGVVCYACRIASTLLLYQELMRKGIRWLIELIKDDYNETVHKKTEVVITLDFCIRNIEKTVKVYEKLMKINLEAAELGEISDIHTKLLRLSSSQGTIETSLQDIDSRLSPGGSLADAWAHQEGTHPKDRNVEKLQVLLNCMTEIYYQFKKDKAERRLAYNEEQIHKFDKQKLYYHATKAMTHFTDECVKKYEAFLNKSEEWIRKMLHLRKQLLSLTNQCFDIEEEVSKYQEYTNELQETLPQKMFTASSGIKHTMTPIYPSSNTLVEMTLGMKKLKEEMEGVVKELAENNHILERFGSLTMDGGLRNVDCL"}, "B3": {"name": "endogenous IKKi (enzyme, UniProt Q14164 1-716)", "chain": "B1 chain"}, "B4": {"name": "TBK1-Flag (enzyme, UniProt Q9UHD2 1-729)", "chain": "B2 chain"}, "B5": {"name": "RIG-I-Flag (protein, UniProt O95786 1-925)", "chain": "MTTEQRRSLQAFQDYIRKTLDPTYILSYMAPWFREEEVQYIQAEKNNKGPMEAATLFLKFLLELQEEGWFRGFLDALDHAGYSGLYEAIESWDFKKIEKLEEYRLLLKRLQPEFKTRIIPTDIISDLSECLINQECEEILQICSTKGMMAGAEKLVECLLRSDKENWPKTLKLALEKERNKFSELWIVEKGIKDVETEDLEDKMETSDIQIFYQEDPECQNLSENSCPPSEVSDTNLYSPFKPRNYQLELALPAMKGKNTIICAPTGCGKTFVSLLICEHHLKKFPQGQKGKVVFFANQIPVYEQQKSVFSKYFERHGYRVTGISGATAENVPVEQIVENNDIIILTPQILVNNLKKGTIPSLSIFTLMIFDECHNTSKQHPYNMIMFNYLDQKLGGSSGPLPQVIGLTASVGVGDAKNTDEALDYICKLCASLDASVIATVKHNLEELEQVVYKPQKFFRKVESRISDKFKYIIAQLMRDTESLAKRICKDLENLSQIQNREFGTQKYEQWIVTVQKACMVFQMPDKDEESRICKALFLYTSHLRKYNDALIISEHARMKDALDYLKDFFSNVRAAGFDEIEQDLTQRFEEKLQELESVSRDPSNENPKLEDLCFILQEEYHLNPETITILFVKTRALVDALKNWIEGNPKLSFLKPGILTGRGKTNQNTGMTLPAQKCILDAFKASGDHNILIATSVADEGIDIAQCNLVILYEYVGNVIKMIQTRGRGRARGSKCFLLTSNAGVIEKEQINMYKEKMMNDSILRLQTWDEAVFREKILHIQTHEKFIRDSQEKPKPVPDKENKKLLCRKCKALACYTADVRVIEECHYTVLGDAFKECFVSRPHPKPKQFSSFEKRAKIFCARQNCSHDWGIHVKYKTFEIPVIKIESFVVEDIATGVQTLYSKWKDFHFEKIPFDPAEMSK"}},
  "experiment_in_all_cases": "co-IP",
  "key": {"CBP-Flag": {"target": "CBP-Flag (UniProt Q92793)"}, "IRF7-Flag": {"target": "T1, IRF7-Flag (UniProt Q92985)", "T1 sequence": "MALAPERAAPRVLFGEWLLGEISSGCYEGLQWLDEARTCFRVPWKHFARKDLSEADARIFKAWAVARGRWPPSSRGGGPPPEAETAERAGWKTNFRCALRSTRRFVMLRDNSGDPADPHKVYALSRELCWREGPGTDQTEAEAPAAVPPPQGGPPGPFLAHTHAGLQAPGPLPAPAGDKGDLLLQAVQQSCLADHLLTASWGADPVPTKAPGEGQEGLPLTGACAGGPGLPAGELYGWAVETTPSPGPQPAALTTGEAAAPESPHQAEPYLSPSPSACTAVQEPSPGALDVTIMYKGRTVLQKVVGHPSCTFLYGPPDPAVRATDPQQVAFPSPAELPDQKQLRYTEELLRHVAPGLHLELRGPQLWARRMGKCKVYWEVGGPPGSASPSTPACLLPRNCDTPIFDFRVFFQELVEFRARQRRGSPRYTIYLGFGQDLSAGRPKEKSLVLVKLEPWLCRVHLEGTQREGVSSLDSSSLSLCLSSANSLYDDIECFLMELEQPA"}, "TBK1-Myc": {"target": "T2, TBK1-Myc (UniProt Q9UHD2)", "T2 sequence": "B2 chain"}, "p300-Myc": {"target": "p300-Myc (UniProt Q09472)"}, "[1]": {"target": "HSV-1 UL31-Flag (herpes simplex virus 1 (F strain)) (UniProt P10215)"}, "IKKi-Myc": {"target": "T3, IKKi-Myc (UniProt Q14164)", "T3 sequence": "B1 chain"}, "[2]": {"target": "HSV-1 UL31-HA (herpes simplex virus 1 (F strain)) (UniProt P10215)"}},
  "note": "These are yes or no findings as the source states them, for the method shown. In cells and extracts the contact can be indirect. Some entries that bind do so weakly or less than the wild type. For some of these results: Tags and fused reporters may be left off the sequences shown.",
  "data": [
    {"molecule": "HSV-1 UL31-HA (from UniProt P10215 1-306)", "values": [
      {"measurement": "binding", "setting": "CBP-Flag", "value": "binds"},
      {"measurement": "binding", "setting": "IRF7-Flag", "value": "binds"},
      {"measurement": "binding", "setting": "TBK1-Myc", "value": "binds"},
      {"measurement": "binding", "setting": "p300-Myc", "value": "binds"}
    ]},
    {"molecule": "IRF3-Flag (from UniProt Q14653 1-427)", "values": [
      {"measurement": "binding", "setting": "p300-Myc", "value": "binds"}
    ]},
    {"molecule": "IRF3-HA (from UniProt Q14653 1-427)", "values": [
      {"measurement": "binding", "setting": "CBP-Flag", "value": "binds"},
      {"measurement": "binding", "setting": "[1]", "value": "binds"},
      {"measurement": "binding", "setting": "IKKi-Myc", "value": "binds"},
      {"measurement": "binding", "setting": "TBK1-Myc", "value": "binds"}
    ]},
    {"molecule": "MAVS-Flag (from UniProt Q7Z434 1-540)", "values": [
      {"measurement": "binding", "setting": "[2]", "value": "no binding"}
    ]},
    {"molecule": "endogenous IRF3 (from UniProt Q14653 1-427)", "values": [
      {"measurement": "binding", "setting": "[2]", "value": "binds"}
    ]},
    {"molecule": "B1", "values": [
      {"measurement": "binding", "setting": "[2]", "value": "binds"}
    ]},
    {"molecule": "B2", "values": [
      {"measurement": "binding", "setting": "[2]", "value": "binds"}
    ]},
    {"molecule": "B3", "values": [
      {"measurement": "binding", "setting": "[2]", "value": "binds"}
    ]},
    {"molecule": "B4", "values": [
      {"measurement": "binding", "setting": "IKKi-Myc", "value": "binds"}
    ]},
    {"molecule": "B5", "values": [
      {"measurement": "binding", "setting": "[2]", "value": "no binding"}
    ]}
  ]
}
